The values below come from ChEMBL document CHEMBL1157539, “Thousands of chemical starting points for antimalarial lead identification” (Nature, 2010).

Structures are written as SMILES. Whole data set: some 13,000 compounds, median “IFI” near 4, cut for the highest 2% near 17. The list shows a part of the results.

A short description of the assay: GSK_TCMDC: Inhibition Frequency Index (IFI). The number of non-kinase HTS assays where a compound showed > 50 % inhibition, expressed as a percentage of the number of such assays in which the compound was tested (-0 is zero). The format is functional.
`COc1ccccc1C1CCN(C2CCC(NC(=O)/C=C/c3ccc4c(c3)OC(F)(F)O4)CC2)CC1` (configuration not stated) yielded an IFI of 9.84%.

Molecule `COc1cc2nc(-c3ccccc3)nc(N3CCN(C(=O)c4ccco4)CC3)c2cc1OC` returned an IFI of -0%. The figure for `CN1CCC(c2c[nH]c3ccc(NC(=O)Nc4ccc(-c5ccncc5)cc4Cl)cc23)CC1` is 2.88%; for `c1cc(CNCCN2CCNCC2)cc(-c2cccc(-c3nc4ccccc4[nH]3)c2)c1` it is 3%; for `N#Cc1ccc(N(CCOc2ccc(Cl)c(F)c2)Cc2ccccc2C(F)(F)F)cc1C(F)(F)F` it is 0%. `CCN(CCCN1CCCCC1)c1cc(C)nc(Nc2ccc(OC)cc2)n1`: the IFI was 1.28%. With `COc1ccccc1CCNc1nccc(N[C@@H](Cc2ccccc2)C(=O)NCc2cccs2)n1` the figure was 4.55%.

Molecule `NC1=NC(c2ccccc2)(c2ccccc2)C(=O)N1CC1CCC1` showed an IFI of 1.98%. The figure for `COc1ccccc1-c1csc(C(=O)NCC2CCN(Cc3ccc(C(C)C)cc3)C2)c1` (configuration not stated) is 9.8%. With `CC(C)NCc1ccc(-c2cccc(NC(=O)c3ccc(Cl)cc3)c2)cc1` the figure was 6.8%; with `CC(C)N1CCN(C(CN2CCN(CCCOc3ccc(-c4ccccc4)cc3)CC2)c2ccc(F)cc2)CC1` (configuration not stated), 20.3%; with `NCC1CCCN1Cc1ccc(-c2ccc(-c3nc4cc(F)ccc4[nH]3)cc2)cc1` (configuration not stated), 9.9%. In the case of `Cc1cc(Cl)ccc1NC(=O)NCCCCCN1CCC(c2c[nH]c3ccccc23)CC1`, the IFI was found to be 8.15%. The figure for `Cc1cc(N[C@@H](Cc2ccccc2)C(=O)Nc2ccccc2)nc(NCCN2CCCC2)n1` is 0%; for `CCCNCc1ccc(-c2ccc(CN(CCOC)C(=O)c3cscn3)cc2)nc1` it is 1.4%.

The molecule `Nc1nccc2ccc(-c3ccncc3)cc12` showed an IFI of 3%. The figure for `FC(F)(F)c1ccc2[nH]ccc(=NN=Cc3ccccc3)c2c1` is -0%. With `COc1ccc(NC(=O)CSc2nc(-c3ccccc3Cl)ns2)cc1` the figure was 3.15%; with `CC(=O)Oc1c(C2CCN(CCCCNC(=O)c3ccc(-c4ccc(C#N)cc4)cc3)CC2)ccc2c1CCCC2`, 5.17%; with `O=C(CN1CCN(C(=O)c2ccco2)CC1)Nc1ccc(Br)cc1Cl`, -0%. With `COc1ccc2cc(C(=O)NC3CCC(CCN4CCc5cc(C#N)ccc5C4)CC3)[nH]c2c1` (configuration not stated) the figure was 1.5%.

In turn, `CC(=O)N1N=C(c2ccc(Cl)cc2)Sc2c1nc(-c1ccccc1)n2C(C)=O` displayed an IFI of -0%. Regarding `CN1CCN(CCCN(Cc2csc(-c3ccc(CNCc4ccccc4)cc3)n2)S(=O)(=O)c2ccccc2Cl)CC1`, the IFI amounted to 5.63%.

`COc1ccccc1C1CCN(C2CCC(NC(=O)/C=C/c3cc(F)cc(F)c3)CC2)CC1` (configuration not stated) returned an IFI of 8.33%. `O=C(Nc1cccc(-c2cccc(-c3nc4cc(C(F)(F)F)ccc4[nH]3)c2)c1)c1c[nH]cn1`: the IFI was determined as 4.67%. The figure for `CC(=O)c1c(C)[nH]c(C(=O)Nc2ccc(-c3nc4ccc(C)cc4s3)cc2)c1C` is 1.71%; for `COc1ccc(CCNc2nc(N)c3cc(OC)c(OC)cc3n2)cc1` it is 1.53%; for `COc1cccc2cc(C(=O)N[C@@H](CC(C)C)C(=O)N[C@H](/C=N/NC(=O)c3ccccc3)Cc3c[nH]cn3)oc12` it is 2.75%. `CC(=O)Nc1ccc(CN(Cc2ccc(OC(C)(C)C)cc2)Cc2ccc3c(c2)OCCO3)cc1` gave an IFI of 3.09%.

For the molecule `Cc1cc(Nc2ncc(C#N)c(Nc3ccccc3C(N)=O)n2)ccc1N1CCN(C)CC1`, the IFI was 11.5%.

`COc1c(C2CCN(CCCCNC(=O)c3cc(-c4ccc(C#N)cc4)n[nH]3)CC2)ccc2c1CCCC2` displayed an IFI of 2.65%. The figure for `NC1CCN(Cc2cccc(-c3ccc(-c4nc5ccccc5[nH]4)s3)c2)C1` (configuration not stated) is 2.9%; for `N#Cc1cc(C(=O)Nc2ccccc2)c(N)nc1SCC(=O)NC(c1ccccc1)c1cccs1` (configuration not stated) it is 6.12%. The molecule `O=C(Nc1ccc(-c2nc3ccccc3[nH]2)cc1)c1ccc(N2CCCC2)c([N+](=O)[O-])c1` had an IFI of 0.99%. With `COc1ccc2nccc(C(=O)NC3CCC(CCN4CCc5cc(C#N)ccc5C4)CC3)c2c1` (configuration not stated) the figure was 0.72%; with `Cc1cc(N)c2cc(NC(=O)c3cc4ccccc4s3)ccc2n1`, 6.12%. In turn, `Cc1cccc(NC(=O)NCc2ccccc2)n1` displayed an IFI of 0.78%. The figure for `CC1CN(Cc2ccccc2)CCN1c1ccc(NC(=O)c2cccs2)cc1` (configuration not stated) is 2.78%. `O=S(=O)(NCCN1CCCC1)c1ccc(-c2ccc(CNC3Cc4ccccc4C3)cc2)s1`: the IFI amounted to 10.7%. With `CCN1CCN(CCCNc2c3ccc(Cl)cc3nc3ccc(OC)cc23)CC1` the figure was 4.23%. With `Cc1cccc2nc(-c3ccc(-c4ccc(NC(=O)CN5CCN(C)CC5)cc4)cc3)[nH]c12` the figure was 5.22%; with `CC(=O)c1c[nH]c2ccc(/C=C/C(=O)NC3CCC(CCN4CCc5ccc(C#N)cc5CC4)CC3)cc12` (configuration not stated), 3.6%.

As to `Cc1cc(N[C@@H](Cc2ccccc2)C(=O)NCc2cccs2)nc(NCCc2ccccn2)n1`, the IFI came out at 2.27%. As to `Cc1c(F)cc(C(=O)NC2CC2)cc1-c1ccc2c(cnn2S(=O)(=O)c2cccs2)c1`, the IFI came to 0%. The figure for `COc1ccc(Br)cc1/C=C/C(=O)Nc1cccc(C2CCN(C)CC2)c1` is 7.02%. With `COc1ccc(Nc2ncc3c(-c4cccc(NC(=O)Cc5cccnc5)c4)c[nH]c3n2)cc1OC` the figure was 4.9%. With `Cn1cncc1C(=O)Nc1cccc(-c2ccc(-c3nc4cc(F)ccc4[nH]3)s2)c1` the figure was -0%. On to `COc1cc2nc(-c3ccc(Br)cc3)cc(N)c2cc1OC`, for which the IFI was 11.1%. The figure for `CC(=O)Nc1cccc(/C=C/C(=O)N2CCC(N3CCCCC3)CC2)c1` is 0.75%. The figure for `CCN1CCN(CC(O)CNC(=O)Nc2ccc(Cl)cc2)CC1` (configuration not stated) is 2.72%; for `CC(=O)N1N=C(c2ccc(F)cc2)Sc2c1nc(C1CCCCC1)n2C(C)=O` it is 3.08%; for `COCCNCc1cccc(-c2ccc3c(Nc4ccc(F)cc4Cl)ccnc3c2)c1` it is 2.22%. The figure for `CCc1c(CCNCCCCCCNCCc2ccc(Br)cc2)ccc(O)c1O` is 4.29%; for `CCCCCCCCCCS(=O)(=O)N[C@H](COCc1cccc(Oc2ccccc2)c1)COP(=O)(O)OC` it is 0%; for `O=C(Nc1ccc2ccccc2c1)c1ccc(CN2CCC(Cc3ccccc3)CC2)cc1` it is 6.21%. `Fc1ccc2[nH]ccc(=NN=CC=Cc3ccccc3)c2c1` gave an IFI of 2.24%. The figure for `O=C(Nc1ccc(-c2ccc(-c3nc4cc(C(F)(F)F)ccc4[nH]3)cc2)cc1)Nc1ccc(F)c(F)c1F` is 2.97%; for `N#Cc1ccc2c(c1)CCN(CCC1CCC(Nc3ncnc4ccccc34)CC1)C2` (configuration not stated) it is 7.25%.

The molecule `O=C(Nc1ccc(-c2ccc(-c3nc4ccccc4[nH]3)s2)cc1)Nc1ccc(Cl)c(Cl)c1` yielded an IFI of 4.04%. With `O=C(N[C@@H](Cc1ccccc1)C(=O)NC1CCCCCC1)c1ccc(O)c(-c2cccc(C(F)(F)F)c2)c1` the figure was 2.19%; with `Cc1nc(-c2ccc3c(c2)CCN(CCC2CCC(NC(=O)c4cc5cccc(Cl)c5[nH]4)CC2)CC3)no1` (configuration not stated), 7.35%; with `O=C(NC1CCN(Cc2ccccc2)CC1)c1cc(-c2cccnc2)nc2ccc(Cl)cc12`, -0%. Molecule `COc1ccc(CNCc2ccc(F)cc2)cc1-c1ccc(S(=O)(=O)NCCN2CCCC2)cc1` yielded an IFI of 10.9%. With `CCOc1ccc2c(N/N=C/c3cccc([N+](=O)[O-])c3)cc(C)nc2c1` the figure was 3.29%; with `Cc1cc(N)nc2ccc(-c3cccc(CN)c3)cc12`, 4.14%; with `COc1ccc(CN2C(=S)N(Cc3ccccc3)C(=O)C2CC(=O)Nc2ccccc2)cc1OC` (configuration not stated), 3.42%. On to `O=C(Nc1cc(Cl)cc(Cl)c1)c1cnn(-c2ccc(F)cc2)c1C1CCNCC1`, for which the IFI is 3.96%. With `CC(C)(C)c1ccc(CNC(=O)c2cc(CNC3CCC(N)CC3)ccc2O)cc1` (configuration not stated) the figure was 2.94%. With `CCCCCN1CCN(Cc2cccc(NC(=O)c3ccc(Cl)c(Cl)c3)c2)CC1` the figure was 6.62%. With `COc1ccc(NS(=O)(=O)c2ccccc2Br)cc1N1CCN(C)CC1` the figure was -0%; with `CN1CCN(c2cc3c(Nc4ccc5c(cnn5Cc5ccccc5)c4)ncnc3cn2)CC1`, 3.1%.

In turn, `COc1ccc(CNC(=O)Nc2cccc(-c3csc(NC(=N)N)n3)c2)cc1` gave an IFI of 0.77%. With `COc1ccc(CCN(C)CCOc2ccc(NC(=O)COc3ccc4sc5ccccc5c(=O)c4c3)cc2)cc1OC` the figure was 16.1%; with `CC(C)(C)C(=O)Nc1ccc(C(=O)Nc2cccc(-c3nc4ccccc4[nH]3)c2)cc1`, 2.84%. Take `O=C(/C=C/c1ccc(Cl)c(Cl)c1)NCCCCCN1CCCC(CNC(=O)Nc2ccc(C(F)(F)F)cc2)C1` (configuration not stated): the IFI turned out to be 17.7%. With `COc1ccc(-c2cc(C(=O)N3CCc4ccccc43)c3ccccc3n2)cc1OC` the figure was 2%. With `O=C(NCCN1CCC(c2ccncc2)CC1)c1cccc(Nc2nccc(Nc3ccc(Oc4ccccc4)cc3)n2)c1` the figure was 5.97%; with `Nc1nccc2ccc(-c3ccnc(NCc4cccnc4)n3)cc12`, 5.56%. With `O=C(c1cc(-c2cccs2)n[nH]1)N1CCN(S(=O)(=O)c2ccc(Cl)cc2)CC1` the figure was -0%.

For the molecule `COCCNCc1ncsc1-c1ccc2c(Nc3ccc(Oc4ccccc4)cc3)ccnc2c1`, the IFI stood at 7.35%. The figure for `CN(C)CCNCc1ccc(-c2ccc3c(Nc4ccc(Oc5ccccc5)cc4)ccnc3c2)o1` is 7.19%; for `CC(C)c1sc(N2CCN(C)CC2)nc1C(=O)Nc1cccc2c1CCCC2` it is 3.85%; for `O=C(Nc1ccccc1)c1ccc(N2CCC(COc3cccc(C(F)(F)F)c3)CC2)nc1` it is 0%. The figure for `COc1ccc2c(Nc3ccc(N4CCN(C)CC4)cc3)cc(C)nc2c1` is 4.44%; for `C=C(C)CSc1nc2c(c(=O)n1Cc1ccco1)C1(CCCCC1)Cc1ccccc1-2` it is 2.9%.

On to `CC(C)N1CCN(C(CN2CCN(CCCOc3cccc(F)c3)CC2)c2ccc(F)cc2)CC1` (configuration not stated), for which the IFI stood at 6.2%. With `CC1(C)CC(=O)c2c(O)cc(OCc3ccncc3)cc2O1` the figure was -0%; with `Cc1ccc(F)cc1S(=O)(=O)Nc1cccc(CCN2CCC(N3CCCCC3)CC2)c1`, 6.25%; with `N#Cc1ccc(N[C@@H](CC2CCCCC2)C(=O)N[C@@H]2CCCc3ccccc32)c2ccccc12`, 2.88%.

In turn, `Oc1ccc(CCNc2nc(N/N=C/c3ccc(Cl)cc3)nc(N3CCNCC3)n2)cc1` returned an IFI of 0.75%. With `CC(C)(C)C(=O)Nc1ccccc1Oc1ccc(Cl)cc1` the figure was 0.72%; with `COc1ccc2ncc(F)c(CCN3CCC4(CC3)COC(c3cc5c(cn3)OCCO5)=N4)c2n1`, 3.52%.
